Reference: paper PMC12136788
This is one part of the list.

T1: UNK ZnF1-3 (human, UniProt Q9C0B0 31-174)
T1 sequence: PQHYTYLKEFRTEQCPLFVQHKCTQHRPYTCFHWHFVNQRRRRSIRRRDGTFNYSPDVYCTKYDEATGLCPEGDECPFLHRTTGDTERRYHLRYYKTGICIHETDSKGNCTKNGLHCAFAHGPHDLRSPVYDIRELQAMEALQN

B1: chr10:106025898:106025899:+_ENSG00000148834_ENST00000369713|hu_mus|FALSE|FALSE (ssRNA)
RNA: GGGAGUUCUACAGUCCGACGAUCUAGACACUCCUUGAGCUCCAAUGCUUCCAGUCGCUGAAACCAAGGCCAAGUAAGAUAAUCAACCAUAGAAGGAGAAUCCCCACCAAGGAAGCUCUUGUAAUUAUCCAUGCCCUCCUCUAGCAACAGAGGAUUGAGCAUCA
B2: chr7:77256914:77256915:+_ENSG00000127947_ENST00000248594|hu_hu|motif|central (ssRNA)
RNA: GGGAGUUCUACAGUCCGACGAUCUAUAUUAUGUCUAGCAAUGGACAUUGGCAAUACUUUCCUAGUAGAAAUGCUUUCAGUACGGGUGGCAGCAGAAACUGUGGCACUUGCUGUUGAAAUAUUAGUUUUAUUCUGGGUCACAGCCAACAGAGGAUUGAGCAUCA
B3: 75765044_75765164_3056_3pUTR_ENSMUSG00000042410_ENSMUST00000047232|mouse|control|control (ssRNA)
RNA: GGGAGUUCUACAGUCCGACGAUCUUUCUUUUAAUUUAGGUUAAACCAGUAAUUCAAAAAAGCAUUAAACCAUUAUUAAGAAUUAAACUGAAAAUGUUUUUCCAUGAAAAUUUAUCAGGCUAUUUGUGGCUAAUUAAAAAAAAACAACAGAGGAUUGAGCAUCA
B4: chr2:183846084:183846085:-_ENSG00000061676_ENST00000360982|hu_hu|motif|central (ssRNA)
RNA: GGGAGUUCUACAGUCCGACGAUCAAGGUACUGCACGUAAUACCUCUGCAUUACAGGUCCGUAUUUCCUCACAUGUGCUCGGAGUUCUUCCAUGUAAAAUAUUAAUUCAGCAAUGUGCUUAUCUAUAAAGUCGUCUGCACUCUUCAACAGAGGAUUGAGCAUCA
B5: chr1:137271502:137271503:-_ENSMUSG00000041889_ENSMUST00000041240|mus_mus|FALSE|FALSE (ssRNA)
RNA: GGGAGUUCUACAGUCCGACGAUCCAGUCCUCACUCGCCAGCGCCAGAGGAGCCCCAAGCACCAGCAGGACGACGGCUGCGAGCGGCGCGGUCCCGCGGGGCCCCGCGGGCGGCAUGGCGAGAGGGGGCUGGGCGCGGCCAGGACAACAGAGGAUUGAGCAUCA
B6: chr3:32582686:32582687:-_ENSG00000144635_ENST00000273130|hu_hu|motif|central (ssRNA)
RNA: GGGAGUUCUACAGUCCGACGAUCUCUCUGGGGAGAAGCCGGGAAGUCUUCUCCUGGCUCUACAUAUUCUUGGAAGUCUCGGAUCAACUUUUGUUCCAUUUGUUUCAUUUCUUCAGGAGGGAUUUUCAGUUUGUCAACAUGUUCCAACAGAGGAUUGAGCAUCA
B7: chr3:148802587:148802588:-_ENSG00000071794_ENST00000310053|hu_mus|hu_hu_hu_mus_False|38_38 (ssRNA)
RNA: GGGAGUUCUACAGUCCGACGAUCUCCAACAACUUGUCCUCUCAUAGUUCCAAAUAAAACCAAAUCUUGCUCUUCAUCACUCGUUAGGAAGUCAUCUGGAGGGAUAAUGUCUUGGAAUUCAAAAUGUGGCAAGAAAGUUGAGUACAACAGAGGAUUGAGCAUCA
B8: chr2:42509997:42509998:+_ENSG00000143924_ENST00000318522|hu_mus|hu_hu_hu_mus_True|48_88 (ssRNA)
RNA: GGGAGUUCUACAGUCCGACGAUCUCGCUGAGUCCUCUCCUCAUAAUUAAAUAGUACUACCACUGAGGCGAUAAAAUAAACUAUCUCCCCGGUCGGAAGCAGGUAUACAUUCGCUCUACAGUCCUUUCCUCGAUAACCGUAUACCAACAGAGGAUUGAGCAUCA
B9: chr19:8913615:8913616:-_ENSMUSG00000071658_ENSMUST00000096259|mus_hu|mus_mus_mus_hu_False|68_78 (ssRNA)
RNA: GGGAGUUCUACAGUCCGACGAUCAGGGUACCAAAACCUUCUGCCUGAAAUGGGUGCCCCACCCUGCCAGGACUUGGAGCUGAAAGUAUCUGAUGCAGAAGCAGUGACUAUACGAAAGGAGGCCCCUGGGGAGGGCCAGGCCAGCAACAGAGGAUUGAGCAUCA
B10: 57861572_57865899_835_CDS_ENSG00000047315_ENST00000314595|human|control|control (ssRNA)
RNA: GGGAGUUCUACAGUCCGACGAUCAAUAUCUCUGUCGGACACAAAACCUAAUGCUCUGAACACAAUAAUGAUGGGAACUUCUUGCUUGAUAUAUGGUAGAGUUGCCACAAUGCGCUGACCAAUAGCACUCUUCUUGGCACCCUGCAACAGAGGAUUGAGCAUCA
B11: chr4:115894766:115894767:+_ENSMUSG00000028698_ENSMUST00000030464|mus_mus|motif|central (ssRNA)
RNA: GGGAGUUCUACAGUCCGACGAUCUCCACACGGAAAUGUACUUGGGGGUUUCCAACGGCCAGUACAAGUCCAGCCAAACGGCGGGGAUGAGGACAAGGUCCUCCUCUUCUCUCCUCCUAAAGCACCCAACAAAAUACCCCGAACCAACAGAGGAUUGAGCAUCA
B12: chr14:78183846:78183847:+_ENSG00000119705_ENST00000557342|hu_hu|hu_hu_hu_mus_False|18_28 (ssRNA)
RNA: GGGAGUUCUACAGUCCGACGAUCUCUCAGAAAUCUUUCUUCAUCAGAUGUUUGAGCUCCGUGCAAAGCCUUUGCUCUUUGAGCUUGAACGUGGAUCUAUGGGAGGGCUAUAAUAUGAUUUUCCUGUAAUUUUUUUUUUAAAGACAACAGAGGAUUGAGCAUCA
B13: chr11:77336104:77336105:-_ENSG00000074201_ENST00000525064|hu_mus|hu_hu_hu_mus_False|8_68 (ssRNA)
RNA: GGGAGUUCUACAGUCCGACGAUCCUCACACAUUGCUGUGAACAUCGCCUCCAAUGCUGACUUAUCACUAGGCACAAAUCGAAAUUCAGAAAUGGGUUCAACAUCAUCAUUGUCUUCCUCAUCUUCAUCAUCAGCAAGUUCUUUCAACAGAGGAUUGAGCAUCA
B14: chr8:110352747:110352748:+_ENSG00000120533_ENST00000521662|hu_mus|hu_hu_hu_mus_True|1_1 (ssRNA)
RNA: GGGAGUUCUACAGUCCGACGAUCCAGGGCUCUGCCUUUUGGAGUGAUUUCAGCCACCAAGUCAUCAACAGUAACGUGUUCUAGUCCUUUUUCUUUAAUUACCUCUUUACAGUGUGCCUUUAGCUGAUCCUUCCAGCCACAUUCCAACAGAGGAUUGAGCAUCA
B15: chr7:90019630:90019631:+_ENSMUSG00000057706_ENSMUST00000082237|mus_mus|FALSE|FALSE (ssRNA)
RNA: GGGAGUUCUACAGUCCGACGAUCUAUAUCACUGAAUAGAAAAUAUGCUGGGUGAAGCAGAUCUAGAAGAUUUGUCUGAACCUAUAAAAUCUCCAUCCCAACAGAAUACUGCUCAAAACGUUAUACAUUUUAUGGUUUGUAAUCCAACAGAGGAUUGAGCAUCA
B16: chr14:66974463:66974464:+_ENSMUSG00000022044_ENSMUST00000074523|mus_hu|mus_mus_mus_hu_False|48_108 (ssRNA)
RNA: GGGAGUUCUACAGUCCGACGAUCUUGUAGGAUGAUUUAUUCAGGGGAUCGGCCAGGAAGCAGGAGCAGAACAAGGACACCAGCGGGAGUUCCUUCAUCUUCUCUUUGUAGGCAGCAAGGGUCAUGUUUCUGGGAUCUGGUGGCCAACAGAGGAUUGAGCAUCA
B17: chr3:10015032:10015033:+_ENSMUSG00000027533_ENSMUST00000029046|mus_mus|mus_mus_mus_hu_True|58_78 (ssRNA)
RNA: GGGAGUUCUACAGUCCGACGAUCGUUUUUACCAUCACAAGUGAUGAUACAAUCUGGCUUGGCCAUGGCGCCCAUUUUCCUAAGAGCUAUUCCCACUCCUAGCUCCUUCAUGUAUUCAUCAAAGCCUUUGCUGUCCACCAGGCGCAACAGAGGAUUGAGCAUCA
B18: chr4:76721835:76721836:+_ENSG00000138768_ENST00000264904|hu_mus|hu_hu_hu_mus_True|98_98 (ssRNA)
RNA: GGGAGUUCUACAGUCCGACGAUCGUUUGGCUGGGGUUCUGAGAUGCCUCUGGAAUAUAACUCAUGUUUGCUAAUAAAUCCUAGUUUCUCUAUGAAAUUCUCUUUGCCAAUCCUCUUCUCUAUUAGUUGCUUUAGUUUCUCUUUCAACAGAGGAUUGAGCAUCA
B19: chr5:179045309:179045310:-_ENSG00000169045_ENST00000393432|hu_mus|motif|central (ssRNA)
RNA: GGGAGUUCUACAGUCCGACGAUCAUAAUGAGUUCUAACUUCAGCUCGACUGCUCUUAAAUAUUUCAAUAUACCUGUGCCCGGUUCUUUCCUUGUGUUUCUUUAGAGCCUUUUCAGCUAUUUCCUGUGAAGCAAACUGCACGAACAACAGAGGAUUGAGCAUCA
B20: chr5:68661279:68661280:-_ENSG00000085231_ENST00000217893|hu_mus|FALSE|FALSE (ssRNA)
RNA: GGGAGUUCUACAGUCCGACGAUCACCUGAAUAUGGCUUGAUCAGUGGCAAAGGGGUUUGAUUUCUUUGUCGUGCAAUAUCUAAUAAGAAAUCUCUCGGGGGUGGAGAAGUGAAAGACUGGUCAGCACGGCACUGGAUUGCCAGCAACAGAGGAUUGAGCAUCA
B21: chr3:87781927:87781928:+_ENSMUSG00000004891_ENSMUST00000090973|mus_hu|FALSE|FALSE (ssRNA)
RNA: GGGAGUUCUACAGUCCGACGAUCUCCCUUUCCCAGGUUCUCUUCCUCUUCCAGAUUCCUUUGACUUUCCUUGUCUACCUCCUCUGGAGAUCUCAAAUUCUCCAGGUUCCAUGCUCCCAGAGAUCUCAAUGAUUCCUGAUUCUCCAACAGAGGAUUGAGCAUCA
B22: chr1:60041781:60041782:+_ENSMUSG00000041040_ENSMUST00000036540|mus_hu|mus_mus_mus_hu_False|88_98 (ssRNA)
RNA: GGGAGUUCUACAGUCCGACGAUCAAGUUUACAAUAGCUCAACUUUACAAAUUUAGUCAAAUUUUCUUUUAUUUUCCUUCACAAAAGAAAAUCUUUAUAACCCAGUCCUAGUCUUGGACAUAGUGAAAGCUAUAAAUUCUGACUCAACAGAGGAUUGAGCAUCA

Each binder was assayed against T1, UNK ZnF1-3 (assay: nsRBNS (natural sequence RNA bind-n-seq); RBNS binding buffer (assumed for nsRBNS): 25 mM Tris pH 7.5, 150 mM KCl, 3 mM MgCl2, 0.01% Triton X-100, 500 ug/ml BSA, 20 U/ml SUPERase-In, 4 C; UNK is unkempt and MSI1 is Musashi-1; names of the RNAs are library labels; protein concentration not given here; high values mean tight binding).

How did the binding signal turn out when B1 was run?
The binding signal was 1.28 enrichment R.

For B2, which binding signal is on record?
Its binding signal is 1.7 enrichment R.

For B3, which binding signal is on record?
The binding signal was 0.747 enrichment R.

For B4, which binding signal is on record?
Its binding signal is 0.887 enrichment R.

For B5, which binding signal is on record?
The binding signal was 0.944 enrichment R.

With B6 as the binder, how does the binding signal read?
Its binding signal is 0.784 enrichment R.

B7 was tested. Which binding signal did it give?
The binding signal was 1.31 enrichment R.

With B8 as the binder, how does the binding signal read?
The binding signal was 1.59 enrichment R.

For B9, which binding signal is on record?
The binding signal was 1.2 enrichment R.

How did the binding signal turn out when B10 was run?
Its binding signal is 0.948 enrichment R.

How did the binding signal turn out when B11 was run?
Its binding signal is 1.07 enrichment R.

How did the binding signal turn out when B12 was run?
Its binding signal is 1.18 enrichment R.

For B13, which binding signal is on record?
Its binding signal is 0.957 enrichment R.

With B14 as the binder, how does the binding signal read?
Its binding signal is 0.842 enrichment R.

Which binding signal does the source give for B15 here?
Its binding signal is 0.7 enrichment R.

For B16, which binding signal is on record?
The binding signal was 2.86 enrichment R.

B17 was tested. Which binding signal did it give?
Its binding signal is 0.587 enrichment R.

For B18, which binding signal is on record?
Its binding signal is 0.48 enrichment R.

Which binding signal does the source give for B19 here?
Its binding signal is 0.675 enrichment R.

B20 was tested. Which binding signal did it give?
The binding signal was 1.2 enrichment R.

Which binding signal does the source give for B21 here?
Its binding signal is 0.512 enrichment R.

For B22, which binding signal is on record?
The binding signal was 0.53 enrichment R.
